Source: the supplement of paper PMC9151546
Counter-ions that a name gives are not always drawn. Most values come without repeats; read them as rough.

Key:
CHO-K1 [1] = experiment: hypodiploid nuclei frequency (% of nucleated events); higher = more hypodiploid events (aneugenic)
Protocol: (§1)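 Flow-cytometric in vitro micronucleus assay (Litron MicroFlow) in CHO-K1 cells in 96-well plates, 19 concentrations (4.5-200 µM, n=1 per concentration). Without S9, cells were exposed for 24 h and sampled at 48 h. With Aroclor 1254-induced rat liver S9, cells were exposed for 3-4 h and sampled at 27-28 h. Read-outs are %MN and %hypodiploid nuclei relative to nucleated events, and relative survival as the nuclei-to-bead ratio versus the 1% DMSO vehicle control (x100).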

CHO-K1 [2] = experiment: micronucleus frequency (% of nucleated events); higher = more micronuclei (genotoxic)
CHO-K1 [3] = experiment: relative survival (nuclei to bead ratio vs DMSO control) (% of vehicle control); higher = more surviving cells
Protocol: as §1
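Throughout, for hypodiploid nuclei frequency (% of nucleated events): hypodiploid nuclei gated on a flow cytometer with 488 nm excitation after SYTOX Green staining, cultures at 37 °C, positive controls vinblastine without S9 and cyclophosphamide with S9.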
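Throughout, for micronucleus frequency (% of nucleated events): cells lysed with nuclei stained by SYTOX Green, then micronucleus-gated events counted against nucleated events by flow cytometry with 488 nm excitation.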
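Throughout, for relative survival (nuclei to bead ratio vs DMSO control): Lysed-cell nuclei stained with SYTOX Green and counted against counting beads by flow cytometry at 488 nm excitation, with vinblastine (no S9) and cyclophosphamide (plus S9) as positive controls.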

CN(C)CCCN1c2ccccc2Sc2ccc(Cl)cc21 [Chlorpromazine hydrochloride]
Conditions	hypodiploid nuclei frequency, CHO-K1 [1] [%]	micronucleus frequency, CHO-K1 [2] [%]	relative survival, CHO-K1 [3]
concentration: 4.5 (µM), S9 metabolic activation: with S9, exposure time: 3-4 hours	0.34	3	114
concentration: 4.5 (µM), S9 metabolic activation: without S9, exposure time: 24 hours	0.66	1.24	97.1
concentration: 5.63 (µM), S9 metabolic activation: with S9, exposure time: 3-4 hours	0.36	2.28	99.2
concentration: 5.63 (µM), S9 metabolic activation: without S9, exposure time: 24 hours	0.44	1.18	90.8
concentration: 7.04 (µM), S9 metabolic activation: with S9, exposure time: 3-4 hours	0.3	2.58	102
concentration: 7.04 (µM), S9 metabolic activation: without S9, exposure time: 24 hours	0.54	1.58	86.7
concentration: 8.8 (µM), S9 metabolic activation: with S9, exposure time: 3-4 hours	0.24	1.94	94.5
concentration: 8.8 (µM), S9 metabolic activation: without S9, exposure time: 24 hours	0.56	1.1	95.2
concentration: 11 (µM), S9 metabolic activation: with S9, exposure time: 3-4 hours	0.32	2.84	125
concentration: 11 (µM), S9 metabolic activation: without S9, exposure time: 24 hours	0.76	1.42	86.4
concentration: 13.7 (µM), S9 metabolic activation: with S9, exposure time: 3-4 hours	0.3	1.54	99.2
concentration: 13.7 (µM), S9 metabolic activation: without S9, exposure time: 24 hours	0.5	1.18	84.7
concentration: 17.2 (µM), S9 metabolic activation: with S9, exposure time: 3-4 hours	0.4	2.2	110
concentration: 17.2 (µM), S9 metabolic activation: without S9, exposure time: 24 hours	1.78	1.14	82.7
concentration: 21.5 (µM), S9 metabolic activation: with S9, exposure time: 3-4 hours	0.4	2.08	154
concentration: 21.5 (µM), S9 metabolic activation: without S9, exposure time: 24 hours	0.74	1.48	67.6
concentration: 26.8 (µM), S9 metabolic activation: with S9, exposure time: 3-4 hours	0.14	1.9	94.1
concentration: 26.8 (µM), S9 metabolic activation: without S9, exposure time: 24 hours	1.12	2.12	72.2
concentration: 33.6 (µM), S9 metabolic activation: with S9, exposure time: 3-4 hours	0.3	2.12	99.2
concentration: 33.6 (µM), S9 metabolic activation: without S9, exposure time: 24 hours	2.12	2.92	57
concentration: 41.9 (µM), S9 metabolic activation: with S9, exposure time: 3-4 hours	0.24	2.22	89.8
concentration: 41.9 (µM), S9 metabolic activation: without S9, exposure time: 24 hours	1.82	3.58	47.7
concentration: 52.4 (µM), S9 metabolic activation: with S9, exposure time: 3-4 hours	0.38	2.16	65.6
concentration: 52.4 (µM), S9 metabolic activation: without S9, exposure time: 24 hours	1.18	5.4	48.8
concentration: 65.5 (µM), S9 metabolic activation: with S9, exposure time: 3-4 hours	0.33	5.31	52
concentration: 65.5 (µM), S9 metabolic activation: without S9, exposure time: 24 hours	–	–	34.7
concentration: 81.9 (µM), S9 metabolic activation: with S9, exposure time: 3-4 hours	0.34	6.63	45
concentration: 81.9 (µM), S9 metabolic activation: without S9, exposure time: 24 hours	–	–	7.92
concentration: 102 (µM), S9 metabolic activation: with S9, exposure time: 3-4 hours	0.36	5.16	57.3
concentration: 102 (µM), S9 metabolic activation: without S9, exposure time: 24 hours	–	–	0.77
concentration: 128 (µM), S9 metabolic activation: with S9, exposure time: 3-4 hours	0.2	1.76	64.6
concentration: 128 (µM), S9 metabolic activation: without S9, exposure time: 24 hours	–	–	0.06
concentration: 160 (µM), S9 metabolic activation: with S9, exposure time: 3-4 hours	–	–	38
concentration: 200 (µM), S9 metabolic activation: with S9, exposure time: 3-4 hours	–	–	7.24
concentration: 200 (µM), S9 metabolic activation: without S9, exposure time: 24 hours	–	–	0.04

O=c1ccc2ccccc2o1 [Coumarin]
Conditions	hypodiploid nuclei frequency, CHO-K1 [1] [%]	micronucleus frequency, CHO-K1 [2] [%]	relative survival, CHO-K1 [3]
concentration: 4.5 (µM), S9 metabolic activation: with S9, exposure time: 3-4 hours	0.3	1.82	87.4
concentration: 4.5 (µM), S9 metabolic activation: without S9, exposure time: 24 hours	0.36	0.74	106
concentration: 5.63 (µM), S9 metabolic activation: with S9, exposure time: 3-4 hours	0.23	1.38	73.3
concentration: 5.63 (µM), S9 metabolic activation: without S9, exposure time: 24 hours	0.7	2.3	85
concentration: 7.04 (µM), S9 metabolic activation: with S9, exposure time: 3-4 hours	0.2	1.66	77.1
concentration: 7.04 (µM), S9 metabolic activation: without S9, exposure time: 24 hours	0.72	2.16	89.4
concentration: 8.8 (µM), S9 metabolic activation: with S9, exposure time: 3-4 hours	0.28	1.36	73.5
concentration: 8.8 (µM), S9 metabolic activation: without S9, exposure time: 24 hours	0.48	2.6	90.5
concentration: 11 (µM), S9 metabolic activation: with S9, exposure time: 3-4 hours	0.18	1.62	76.1
concentration: 11 (µM), S9 metabolic activation: without S9, exposure time: 24 hours	0.6	1.36	91.6
concentration: 13.7 (µM), S9 metabolic activation: with S9, exposure time: 3-4 hours	0.16	1.56	75.5
concentration: 13.7 (µM), S9 metabolic activation: without S9, exposure time: 24 hours	1.02	3.1	93.8
concentration: 17.2 (µM), S9 metabolic activation: with S9, exposure time: 3-4 hours	0.16	1.48	88.9
concentration: 17.2 (µM), S9 metabolic activation: without S9, exposure time: 24 hours	0.76	1.94	94.6
concentration: 21.5 (µM), S9 metabolic activation: with S9, exposure time: 3-4 hours	0.16	1.38	91.1
concentration: 21.5 (µM), S9 metabolic activation: without S9, exposure time: 24 hours	0.58	2.8	84.1
concentration: 26.8 (µM), S9 metabolic activation: with S9, exposure time: 3-4 hours	0.24	2.34	90.6
concentration: 26.8 (µM), S9 metabolic activation: without S9, exposure time: 24 hours	1.18	2.68	93.5
concentration: 33.6 (µM), S9 metabolic activation: with S9, exposure time: 3-4 hours	0.44	2.46	79.4
concentration: 33.6 (µM), S9 metabolic activation: without S9, exposure time: 24 hours	0.9	2.66	100
concentration: 41.9 (µM), S9 metabolic activation: with S9, exposure time: 3-4 hours	0.32	2.36	82.5
concentration: 41.9 (µM), S9 metabolic activation: without S9, exposure time: 24 hours	1.02	2.7	101
concentration: 52.4 (µM), S9 metabolic activation: with S9, exposure time: 3-4 hours	0.14	1.54	90.6
concentration: 52.4 (µM), S9 metabolic activation: without S9, exposure time: 24 hours	0.82	3.2	107
concentration: 65.5 (µM), S9 metabolic activation: with S9, exposure time: 3-4 hours	0.42	2.58	92
concentration: 65.5 (µM), S9 metabolic activation: without S9, exposure time: 24 hours	0.96	3.06	97.5
concentration: 81.9 (µM), S9 metabolic activation: with S9, exposure time: 3-4 hours	0.36	2	84.4
concentration: 81.9 (µM), S9 metabolic activation: without S9, exposure time: 24 hours	1.06	2.32	102
concentration: 102 (µM), S9 metabolic activation: with S9, exposure time: 3-4 hours	0.5	2.58	84.8
concentration: 102 (µM), S9 metabolic activation: without S9, exposure time: 24 hours	1.12	3.44	97.5
concentration: 128 (µM), S9 metabolic activation: with S9, exposure time: 3-4 hours	0.26	1.42	94.6
concentration: 128 (µM), S9 metabolic activation: without S9, exposure time: 24 hours	1.14	1.9	108
concentration: 160 (µM), S9 metabolic activation: with S9, exposure time: 3-4 hours	0.38	1.76	88.9
concentration: 160 (µM), S9 metabolic activation: without S9, exposure time: 24 hours	1.24	3.82	91.9
concentration: 200 (µM), S9 metabolic activation: with S9, exposure time: 3-4 hours	0.4	1.92	74
concentration: 200 (µM), S9 metabolic activation: without S9, exposure time: 24 hours	1.62	2.2	93.1
